Results published in ChEMBL document CHEMBL5308541, “MAIP: An Open-Source Tool to Enrich High-Throughput Screening Output and Identify Novel, Druglike Molecules with Antimalarial Activity” (ACS Med Chem Lett, 2023).
Out of some 150,000 compounds screened, about 540 (0.36%) showed an effect of 50% or more. Some of the results follow.

tested on: Plasmodium falciparum; assay: Primary screen in NF54 nanoGlo assay, in single point, at 2uM, 72h; a lower Z score goes with more inhibition; format: functional, Erythrocyte; details: timepoint 72 hour

In order of falling “% Inhibition” value:
1. Cc1c(CN2CCC(O)(Cn3ccnc3)CC2)[nH]c2c(Cl)cccc12  95%
2. C[C@](O)(CNc1ccc2[nH]ccc2c1)c1cccc(C(F)(F)F)c1  15%
3. Cc1cn(-c2cncc(-c3cccc(OCCN(C)C)c3)c2)cn1  15%
4. CC1(C)C2CCC1(C)C(OCC(O)CNC1CCCC1)C2 (stereo unspecified)  13%
5. FC(F)(F)c1cccnc1NCCNCc1csc(-c2ccco2)n1  11%
6. CC1(C)Cc2cccc(C(=O)N3CCC(n4cc(C(=O)O)cn4)CC3)c2O1  7%
7. COC(C)C(=O)N1CCCC(C(=O)O)C1C (stereo unspecified)  7%
8. Cc1cccc(OC2CCN([C@H]3CCCN(Cc4ccccc4)C3)CC2)n1  6%
9. CC(C)n1cc2cc(NC(=O)c3cc4ccc(OC(F)(F)F)cc4[nH]3)ccc2n1  6%
10. CCCCC(=O)N(C)[C@H](c1ccccc1)c1c[nH]c2ccccc12  6%
11. C(=Cc1ccccc1)COc1ccc2ncccc2c1  4%
12. CC(=O)N1CCC(NCc2ccc3[nH]c(-c4ccc(F)cc4)c(C)c3c2)CC1  3%
13. C[C@H]1COCCN1CCN1CCC(=O)N(C)c2cc(F)ccc21  2%
14. CN(C)c1ncccc1O[C@H]1CCN(c2ncnc3[nH]ccc23)C1  1%
15. COCCN1CCC(Nc2nc3cccc(F)c3s2)CC1  1%
16. c1cc(CN2CCC(NCCOC3CCCCCC3)CC2)ccn1  1%
17. C[C@@H](Cc1ccc2oc3ccccc3c2c1)NC(=O)c1ccc(N(C)C)cc1  0%
18. C[C@H](NC(=O)c1ccnc(N2CCN(C)CC2)c1)c1ncc(-c2ccccc2)o1  0%
19. CC(C)[C@H]1NC(=O)[C@H](C)N(C)C(=O)[C@H]([C@@H](C)O)NC(=O)COc2cccc(c2)CC2(CCNCC2)CNC1=O  -1%
20. NC(=O)c1cncc(N2CCC(N3CCN(CCO)CC3)CC2)n1  -1%
21. COCCn1cnc(-c2ccccc2)c1-c1cccc(OCCCN(C)C)c1  -1%
22. CN(C)CCN(C)C(=O)c1cccc(-c2cc(C(F)(F)F)n[nH]2)c1  -1%
23. CC1(C)C[C@H](NC2CCN(CC(F)F)CC2)c2ccccc2O1  -2%
24. COCC(C)=CCn1cnc2ccc(S(C)(=O)=O)cc2c1=O  -3%
25. C[C@H](NCc1ccnc(N)c1)c1ccc(-c2cccc(C#N)c2)cc1  -3%
26. OCCC#Cc1ccc(-c2c(-c3ccccc3)ncn2CCn2ccnc2)cc1  -3%
27. Cc1ccnc(NCc2cccc(N3CCOCC3)n2)c1Cl  -5%
28. COc1ccc(Cn2nc3ccc(-c4ccc(Cl)cc4)nn3c2=O)cc1F  -5%
29. CCOC1(C)CCN(C(=O)[C@@H](C)Cc2cnc3ccccc3n2)CC1  -5%
30. Cc1ccnc(N2CCN(CCCN3CCCCC3)CC2)c1  -6%
31. O=C(c1ccccc1CC1CCNCC1)N1CCN(C2CCOCC2)CC1  -6%
32. CCc1cc(N2CCC[C@H](Nc3nccc(Oc4ccccc4)n3)C2)ncn1  -7%
33. O=C(NC1COCCC1Oc1ccc(CO)cc1)c1ccnc2ccccc12 (stereo unspecified)  -7%
34. Cc1nn(C)c(C(=O)N2CC(O)C(N3CCCC3)C2)c1Cl (stereo unspecified)  -7%
35. CC[C@@](CO)(NCc1cc(OC)c(OC)cc1OC)c1ccccc1  -8%
36. CN1C[C@@H]2CN(C[C@H]3CCCCN3C(=O)OC(C)(C)C)C[C@@H]2C1  -8%
37. CCOC(=O)N1CCC(Nc2nc(C)ncc2-c2nc(-c3ccsc3)no2)CC1  -9%
38. CN1CCN(c2ncnc3ccc(-c4ccc5c(c4)OCO5)cc23)CC1  -9%
39. CN(C)CC#CCNC(=O)Nc1cccc(OCC(=O)N(C)C)c1  -9%
40. O=C(Cn1cc(OCc2cccc(Cl)c2)c(=O)cc1CO)Nc1ccc2[nH]ccc2c1  -9%
41. CN1CCC(N2CCC[C@H](NC(=O)CN(C)Cc3cccnc3)C2)CC1  -9%
42. O=C(c1ccc(C[C@H]2CCCNC2)cc1)N1CCC(Nc2ccccn2)CC1  -9%
43. O=C(Cc1c[nH]c2ncccc12)Nc1cc(C(F)(F)F)ccn1  -10%
44. c1cc(CNc2ccc(-c3ccncc3)cn2)nc(N2CCOCC2)c1  -11%
45. CN1CCc2cc(CNc3nc(C(F)F)nc4ccccc34)ccc21  -11%
46. CCC(NC(=O)[C@H](CC(=O)OC)NC(C)=O)(C1CC1)C1CC1  -11%
47. Cc1cccc2c(NCCCCN3CCN(CCO)CC3)ncnc12  -12%
48. c1ccc(NCCCNc2nnc(-c3ccon3)s2)nc1  -12%
49. OCC12CCCNC1CCN(Cc1cc(O)c3cc(F)ccc3n1)C2 (stereo unspecified)  -12%
50. Cc1noc(C)c1C(=O)Nc1ccn(C(C)(C)C(=O)O)n1  -13%
51. CC(C)(C)C1CN(C(=O)Cn2ccc(=O)[nH]c2=O)CC(c2ccccc2)O1 (stereo unspecified)  -14%
52. CN(C)C1CCN(c2ccc(Nc3ncnc4c(F)cccc34)cc2)CC1  -15%
53. Oc1cccc(CN2CCN(C3CCN(c4ccc5c(c4)CCC5)CC3)CC2)c1  -19%

In order of rising Z score:
1. Cc1c(CN2CCC(O)(Cn3ccnc3)CC2)[nH]c2c(Cl)cccc12  -16.38
2. C[C@](O)(CNc1ccc2[nH]ccc2c1)c1cccc(C(F)(F)F)c1  -2.61
3. Cc1cn(-c2cncc(-c3cccc(OCCN(C)C)c3)c2)cn1  -2.5
4. FC(F)(F)c1cccnc1NCCNCc1csc(-c2ccco2)n1  -1.98
5. CC1(C)C2CCC1(C)C(OCC(O)CNC1CCCC1)C2 (stereo unspecified)  -1.96
6. COC(C)C(=O)N1CCCC(C(=O)O)C1C (stereo unspecified)  -1.42
7. CC1(C)Cc2cccc(C(=O)N3CCC(n4cc(C(=O)O)cn4)CC3)c2O1  -1.41
8. CC(C)n1cc2cc(NC(=O)c3cc4ccc(OC(F)(F)F)cc4[nH]3)ccc2n1  -1.35
9. Cc1cccc(OC2CCN([C@H]3CCCN(Cc4ccccc4)C3)CC2)n1  -1.22
10. CCCCC(=O)N(C)[C@H](c1ccccc1)c1c[nH]c2ccccc12  -0.93
11. C(=Cc1ccccc1)COc1ccc2ncccc2c1  -0.8
12. CC(=O)N1CCC(NCc2ccc3[nH]c(-c4ccc(F)cc4)c(C)c3c2)CC1  -0.65
13. C[C@H]1COCCN1CCN1CCC(=O)N(C)c2cc(F)ccc21  -0.52
14. COCCN1CCC(Nc2nc3cccc(F)c3s2)CC1  -0.22
15. c1cc(CN2CCC(NCCOC3CCCCCC3)CC2)ccn1  -0.21
16. CN(C)c1ncccc1O[C@H]1CCN(c2ncnc3[nH]ccc23)C1  -0.12
17. C[C@H](NC(=O)c1ccnc(N2CCN(C)CC2)c1)c1ncc(-c2ccccc2)o1  0.03
18. C[C@@H](Cc1ccc2oc3ccccc3c2c1)NC(=O)c1ccc(N(C)C)cc1  0.06
19. CN(C)CCN(C)C(=O)c1cccc(-c2cc(C(F)(F)F)n[nH]2)c1  0.12
20. NC(=O)c1cncc(N2CCC(N3CCN(CCO)CC3)CC2)n1  0.13
21. CC(C)[C@H]1NC(=O)[C@H](C)N(C)C(=O)[C@H]([C@@H](C)O)NC(=O)COc2cccc(c2)CC2(CCNCC2)CNC1=O  0.15
22. COCCn1cnc(-c2ccccc2)c1-c1cccc(OCCCN(C)C)c1  0.28
23. C[C@H](NCc1ccnc(N)c1)c1ccc(-c2cccc(C#N)c2)cc1  0.45
24. CC1(C)C[C@H](NC2CCN(CC(F)F)CC2)c2ccccc2O1  0.46
25. COCC(C)=CCn1cnc2ccc(S(C)(=O)=O)cc2c1=O  0.52
26. OCCC#Cc1ccc(-c2c(-c3ccccc3)ncn2CCn2ccnc2)cc1  0.55
27. COc1ccc(Cn2nc3ccc(-c4ccc(Cl)cc4)nn3c2=O)cc1F  0.82
28. CCOC1(C)CCN(C(=O)[C@@H](C)Cc2cnc3ccccc3n2)CC1  1
29. O=C(c1ccccc1CC1CCNCC1)N1CCN(C2CCOCC2)CC1  1
30. O=C(NC1COCCC1Oc1ccc(CO)cc1)c1ccnc2ccccc12 (stereo unspecified)  1.01
31. Cc1ccnc(NCc2cccc(N3CCOCC3)n2)c1Cl  1.05
32. Cc1nn(C)c(C(=O)N2CC(O)C(N3CCCC3)C2)c1Cl (stereo unspecified)  1.06
33. CCc1cc(N2CCC[C@H](Nc3nccc(Oc4ccccc4)n3)C2)ncn1  1.08
34. Cc1ccnc(N2CCN(CCCN3CCCCC3)CC2)c1  1.24
35. CN(C)CC#CCNC(=O)Nc1cccc(OCC(=O)N(C)C)c1  1.35
36. CCOC(=O)N1CCC(Nc2nc(C)ncc2-c2nc(-c3ccsc3)no2)CC1  1.36
37. CN1CCC(N2CCC[C@H](NC(=O)CN(C)Cc3cccnc3)C2)CC1  1.47
38. CC[C@@](CO)(NCc1cc(OC)c(OC)cc1OC)c1ccccc1  1.48
39. CN1CCN(c2ncnc3ccc(-c4ccc5c(c4)OCO5)cc23)CC1  1.51
40. c1cc(CNc2ccc(-c3ccncc3)cn2)nc(N2CCOCC2)c1  1.6
41. CCC(NC(=O)[C@H](CC(=O)OC)NC(C)=O)(C1CC1)C1CC1  1.71
42. O=C(Cc1c[nH]c2ncccc12)Nc1cc(C(F)(F)F)ccn1  1.76
43. O=C(Cn1cc(OCc2cccc(Cl)c2)c(=O)cc1CO)Nc1ccc2[nH]ccc2c1  1.77
44. Cc1cccc2c(NCCCCN3CCN(CCO)CC3)ncnc12  1.79
45. CN1C[C@@H]2CN(C[C@H]3CCCCN3C(=O)OC(C)(C)C)C[C@@H]2C1  1.82
46. O=C(c1ccc(C[C@H]2CCCNC2)cc1)N1CCC(Nc2ccccn2)CC1  1.84
47. OCC12CCCNC1CCN(Cc1cc(O)c3cc(F)ccc3n1)C2 (stereo unspecified)  1.87
48. CN1CCc2cc(CNc3nc(C(F)F)nc4ccccc34)ccc21  1.98
49. c1ccc(NCCCNc2nnc(-c3ccon3)s2)nc1  2.1
50. CN(C)C1CCN(c2ccc(Nc3ncnc4c(F)cccc34)cc2)CC1  2.21
51. Cc1noc(C)c1C(=O)Nc1ccn(C(C)(C)C(=O)O)n1  2.31
52. CC(C)(C)C1CN(C(=O)Cn2ccc(=O)[nH]c2=O)CC(c2ccccc2)O1 (stereo unspecified)  2.38
53. Oc1cccc(CN2CCN(C3CCN(c4ccc5c(c4)CCC5)CC3)CC2)c1  4.11
